In all, about 4,100 sequences were measured (“arbitrary fluorescence units”: median about 780, highest 2% from about 22,000 on). The list shows a part of the results.
What follows are sequences tested against T1, ETS1 (UniProt P14921) (assay: ETS1 binding intensity (PBM fluorescence), ETS1 alone (arbitrary fluorescence units); higher = stronger binding). Conditions: ETS1 concentration 1 nM; RUNX1 concentration 0 nM.
T1 sequence: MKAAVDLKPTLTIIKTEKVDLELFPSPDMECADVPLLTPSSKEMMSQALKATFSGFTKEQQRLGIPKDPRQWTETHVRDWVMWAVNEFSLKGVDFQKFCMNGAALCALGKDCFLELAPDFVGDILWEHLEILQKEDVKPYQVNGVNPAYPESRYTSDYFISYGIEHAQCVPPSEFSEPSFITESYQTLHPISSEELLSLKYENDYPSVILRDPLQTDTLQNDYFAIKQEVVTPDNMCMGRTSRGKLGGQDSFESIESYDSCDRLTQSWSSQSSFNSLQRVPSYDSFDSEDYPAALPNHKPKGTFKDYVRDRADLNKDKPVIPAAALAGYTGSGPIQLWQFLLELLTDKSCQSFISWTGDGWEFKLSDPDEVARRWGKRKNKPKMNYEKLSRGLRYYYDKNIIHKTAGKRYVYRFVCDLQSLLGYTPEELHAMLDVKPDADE
Outline: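 Double-stranded Agilent 4 × 180k arrays held 36-bp genomic probes whose RUNX1 partner site was mutated, and these were incubated with 1 nM full-length recombinant human ETS1 in the absence of RUNX1 under standard PBM protocols. Bound protein was labelled with anti-ETS1 antibody (Cell Signaling Technology 14069) plus an Alexa488-conjugated secondary and read on a GenePix 4400A, with four spots printed per sequence. Binding level is reported as raw spot fluorescence intensity summarised over replicate spots.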
Sequence GCCATCCGCAGGACTCCGCGTTCTCGCGATAAGTGG has an ETS1 binding intensity of 939.
ACAGTTTCCTTGCTGTGATGTCAGCCCCCGCTGCAG was tested, and the ETS1 binding intensity was 1730.
With CCAACACAGGAAATAATTTGAAACTACAATCAGAAA the ETS1 binding intensity was 3170.
With AGAACTGTGATATGCGCAAACCATTACAGGATGTGA the ETS1 binding intensity was 511.
CGAATGTAAGCACCTCTCGGCCCGGCCGGAAGAAGC was tested, and the ETS1 binding intensity was 697.
In the case of TCCCCACATCCTTTAAAACGATGAGATAACGACATG, the ETS1 binding intensity is reported as 5080.
GGCGCCAGAACAGCACCTTTCTTTGTTTCCTCTTCG was tested, and the ETS1 binding intensity was 400.
TTGCTCCCGGAAGCCCCGCCCGTCCGTGGCTCCTGA gave an ETS1 binding intensity of 1350.
CTAGTTTCCTGTGGCTGCTATGACAAATGACAACAG gave an ETS1 binding intensity of 8190.
With GTCTCGCACCGTGAACACTGAGCTGAACGGAAATGT the ETS1 binding intensity was 433.
With TCCTGCTTCCGCCTCCGCTGCAGCCTCTCCCGAAGA the ETS1 binding intensity was 8150.
In the case of GGCTTCTTTTGGGGTGATACAGGGGCTTCCTCTTCG, the ETS1 binding intensity is reported as 479.
CCAAATCCACTATCACTAATCATCTTCCTGTCATTC was tested, and the ETS1 binding intensity was 748.
Work on GCCGATGAGGAAGTGAGGGCCAAGCACACTGCTCAG yielded an ETS1 binding intensity of 938.
Work on ACAGGAAGTCAGCTGAGTACCGAGCAAGGCGCATGC yielded an ETS1 binding intensity of 1710.
With CGGGACAGCGACGGGCCAGGTGACCGGAAGAGGCCG the ETS1 binding intensity was 1770.
TTGCGTCACGTCCGGCCTGCGAGTTAGCGCCCACTC gave an ETS1 binding intensity of 7820.
Work on GGCCGAGGAAGGACCTGGTGTTTTGATGACGGCTGT yielded an ETS1 binding intensity of 311.
TGCTCAGGATGTTTAAAAACAAATCCACGCGTCTAT showed an ETS1 binding intensity of 661.
TGTTTACTTCCTGGAGGCACTTTGGCTTTTCTTTCT was tested, and the ETS1 binding intensity was 5630.
With AGGTTCCAAACCCCAACCTGCAGCCGGAAGGGGGAC the ETS1 binding intensity was 531.
CTGAGACTCTCTGGTCTGCTTCCTTATCTAGGGGGA gave an ETS1 binding intensity of 429.
Sequence GCACAGGAAAAGCTGCTTTCCGCGTGATAAATTCAA has an ETS1 binding intensity of 870.
TCGCTTCCGGTGTCGGTTACAGACTGGGGTTGCCAT gave an ETS1 binding intensity of 30000.
For GCGCCCGAATCCGCTGGCCCGGAAACCCCGAAACGT, the ETS1 binding intensity was 1080.
Sequence GCCCTCGGAGCCCCAACAACCTCCACTTCCGCCTCC has an ETS1 binding intensity of 2180.
In the case of GCCACTTCCTGGAAAACAGTAATTATCACACGTCTC, the ETS1 binding intensity is reported as 10600.
In the case of TCTGGCTTCCTGTCTTAATAGGGCTTTGGGGTGTGC, the ETS1 binding intensity is reported as 13400.
Work on TGACATGAGGTACAGCACGGCATCCCACATCCTGGA yielded an ETS1 binding intensity of 480.
TCCTGTAGCTTTGGGGTTCCTTGTTTCCTGGGCTGG was tested, and the ETS1 binding intensity was 431.
With GCGTCCTTTGCTGTCTTTTGTCCACGTCCGGGTCAA the ETS1 binding intensity was 580.
Sequence GCCTGTTCCGTCCGCAGACTTCCTCTGGCAGCTGCT has an ETS1 binding intensity of 1810.
GCTCTGGCGGAAGATGTCCCTTCGGTGCAGCTGCCG showed an ETS1 binding intensity of 592.
TTAGTAGGAACCCCAAGGCTCTCACAGGATAAACTG was tested, and the ETS1 binding intensity was 376.
With AAGACAACATCCTGCCGGCACAGCCTGCTGGTTACT the ETS1 binding intensity was 16400.
AAACTACTTCCCCATATCATCTGTAGCTTGCACAAC gave an ETS1 binding intensity of 1180.
Sequence GTCGCCGCGCTCCGCTGAATCCGCGTTTCCGGGATT has an ETS1 binding intensity of 1200.
With CTACAAACGGCTTCCTCCTGCCTAACCCCAACCTCA the ETS1 binding intensity was 1270.
GAAGGCGCACCGCCCCCCGCGCGCCGGGAAGCTCAC gave an ETS1 binding intensity of 286.
TAGTCCGTCCGGGAACAGCGCAAAAGGGACCCCATG was tested, and the ETS1 binding intensity was 505.
Work on TGCCGGAAGCCCGCCAGGCACAGGACCAGCAGGGGT yielded an ETS1 binding intensity of 1720.
TGTTAATGCGCGATCTTGCTGTCCGTTTCCGAGATG showed an ETS1 binding intensity of 385.
Work on CCGAAGAGGAAGCTCCACAGGACCTCCGCCGCCAGC yielded an ETS1 binding intensity of 694.
CTGGGGATGTGTGACACTCAGAGAAACTACAAGGTG was tested, and the ETS1 binding intensity was 574.
TGTCTGGCCACGGTAAGGGCGGAAAGGGTCTAGGTA gave an ETS1 binding intensity of 365.
Sequence TCCCTCCTTCCGCTCTGGTTTTGGGGTTGCTTGCTG has an ETS1 binding intensity of 6220.
CTGTAGTTTCGGTGGCTGTGACGTCGGGAAGTAAGT showed an ETS1 binding intensity of 404.
CTCCCCGGAACACGCGAGTCTCCTGTCGCTGTTCCA was tested, and the ETS1 binding intensity was 473.
Work on ATAGACTCAGGAAGTGATTGTCGTAAGATTCTATAT yielded an ETS1 binding intensity of 1510.
TGCCTGGAAGACGGAAGGCAGGTGGCTGGCTCTAGT was tested, and the ETS1 binding intensity was 349.
Sequence TCCCCAGGAATACGACACACCACTTCCCCTACAACA has an ETS1 binding intensity of 637.
CCTACCACTGAGGGCAGCGCTTCCGCTTTCCTCCTC gave an ETS1 binding intensity of 2680.
Work on CGAAGTGCGCCGGTTGGAGCGGAAGCGCACGCCTGC yielded an ETS1 binding intensity of 1410.
Sequence CTACAGGAAGTTCGAACTGGGCGGAGCCCACTGCAG has an ETS1 binding intensity of 5910.
AGGTCTTTTGCATCCTGCAGAACACCAGATGTGTCC was tested, and the ETS1 binding intensity was 1140.
For AGCTTGCCGGAAGCTGGTTGTTCGCTTCGGCGACCA, the ETS1 binding intensity was 4030.
GACGCAGGATGAGGTGGAGGTGTAGAATGGGGTGCT showed an ETS1 binding intensity of 421.
For TCCTCCGGATGCCCAGCGGCTGCTGAGATACCTCGG, the ETS1 binding intensity was 825.
For AGCACCAGTGTTGTCTCTGCTTCCGGTCCTTATGGT, the ETS1 binding intensity was 7490.
Work on TGCTTCTGAGGAAGTGATCTGTTGTCAAAGAAAGAA yielded an ETS1 binding intensity of 679.
TCTCTTCCGTTCTCTGGTAGCTTTTTGGTAGCTTTG gave an ETS1 binding intensity of 6790.
TGCCGTATGTAGGTTGAGGGCATCCTGCTTCGCCAT showed an ETS1 binding intensity of 763.
Sequence CGGGACAGCGGGCCGGAGTTTTGGCGGAAGAGGCCG has an ETS1 binding intensity of 376.

From the supplement of paper PMC10681739
